PubChem BioAssay AID1030 (National Center for Advancing Translational Sciences (NCATS), 2008)
Among all 220,000 compounds or so, about 16,000 (7.3%) were called active. Inconclusive means that the source gave no clear call. Such entries were picked first, then a sample of the others. Calls follow the shape of the dose curve; as a rule, active = well fitted inhibition curve with a large enough effect (not every such curve was filed as active); inconclusive = small, poorly fitted or top-dose-only effect, or another doubt; inactive = no such curve, though single readings can be large or run the other way. No potency is given beside an inconclusive call; the fits are too rough.

Biological target: Aldehyde dehydrogenase 1A1 (Homo sapiens) (UniProt P00352)
Assay: qHTS Assay for Inhibitors of Aldehyde Dehydrogenase 1 (ALDH1A1);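 as to activity, negative = inhibition: plate controls were no enzyme wells and a reference inhibitor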
Settings: Purified ALDH1A1, NADH fluorescence, propionaldehyde substrate; series mostly up to 75.3 µM; activity, negative = inhibition: at the top concentration
Potency is read from the fitted curve at half-maximal effect; tags tell the direction and shape of the fitted curve.

Sequence of UniProt P00352 (P00352 whole entry, looked up): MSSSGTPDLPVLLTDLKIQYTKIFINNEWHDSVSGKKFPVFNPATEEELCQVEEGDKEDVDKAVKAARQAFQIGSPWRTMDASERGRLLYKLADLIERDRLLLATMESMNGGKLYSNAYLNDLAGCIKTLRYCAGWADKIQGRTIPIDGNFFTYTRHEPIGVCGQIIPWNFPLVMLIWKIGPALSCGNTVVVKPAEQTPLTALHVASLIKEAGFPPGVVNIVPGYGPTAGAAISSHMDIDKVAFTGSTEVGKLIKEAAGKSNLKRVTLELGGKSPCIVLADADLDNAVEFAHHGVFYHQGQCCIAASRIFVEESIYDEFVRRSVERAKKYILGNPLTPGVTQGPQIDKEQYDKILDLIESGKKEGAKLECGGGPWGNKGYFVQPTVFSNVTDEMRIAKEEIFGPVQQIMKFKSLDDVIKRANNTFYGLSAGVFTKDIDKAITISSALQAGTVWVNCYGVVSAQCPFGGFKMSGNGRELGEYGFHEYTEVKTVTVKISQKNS

| Structure (SMILES) | Potency | activity, negative = inhibition |
| --- | --- | --- |
| CC(C)(C)C(=O)/C=c1\s/c(=C\c2ccc(-c3ccc([N+](=O)[O-])cc3)o2)c(=O)n1CC(=O)NC(N)=O | inconclusive [inhibitor, single point] | – |
| O=C(Nc1ccncc1)c1ccc2c(c1)C(=O)N(C1CCCCC1)C2=O | active: 7.08 µM | – |
| COc1c(OC(C)=O)ccc(/C=C/c2ccc3ccccc3n2)c1[N+](=O)[O-] | inconclusive [inhibitor, single point] | – |
| CCOC(=O)N1CCN(c2nc(-c3cccs3)cc(C(F)(F)F)n2)CC1 | inconclusive [inhibitor, partial curve, poor fit] | – |
| C=CCn1c(=NC(=O)c2ccc(S(=O)(=O)N3CCc4ccccc4C3)cc2)sc2cc(S(N)(=O)=O)ccc21 | inconclusive [inhibitor, partial curve] | – |
| COc1ccc(-n2c(=O)cnc3cnc(Oc4ccccc4)nc32)cc1 | inconclusive [inhibitor, partial curve] | – |
| CCOC(=O)NC(=O)CSc1nnnn1-c1ccccc1 | inconclusive [inhibitor, partial curve] | – |
| O=C(COC(=O)/C=C/c1ccccc1Cl)NCCc1ccc(Cl)cc1Cl | – | inactive: 0.747% |
| Cn1c(NC(=O)c2ccc(Cl)cc2)cc(=O)n(C)c1=O | inconclusive [inhibitor, single point] | – |
| c1ccc(C2C3=C(Nc4ncnn42)c2ccccc2CCC3)cc1 (stereo unspecified) | inconclusive [inhibitor, partial curve] | – |
| O=C(CN1CCCCC1)Nc1c2c(nc3ccccc13)N(c1ccccc1)CC2 | inconclusive [inhibitor, partial curve] | – |
| COc1ccc(NC2=CC(=O)N(C)C2=O)cc1 | inconclusive [inhibitor, single point] | – |
| O=C(Nc1cc(S(=O)(=O)N2CCCCC2)ccc1O)c1ccccc1NS(=O)(=O)c1ccc(F)cc1 | inconclusive [inhibitor, partial curve] | – |
| Cc1ccccc1N1C(=O)CC1(C#N)c1ccc(OCc2ccccc2)cc1 (stereo unspecified) | – | inactive: 1.89% |
| CCOC(=O)C1=C(CC)OC(N)=C(C#N)C1c1ccc(NC(C)=O)cc1 (stereo unspecified) | inconclusive [inhibitor, single point] | – |
| CC(=O)N/C(=C\c1ccccc1)C(=O)Nc1ccccc1C | – | inactive: -3.74% |
| Cc1cccc(Cn2c(O)c(N=NC(=S)Nc3ccccc3F)c3ccccc32)c1 | inconclusive [inhibitor, single point] | – |
| N#Cc1cnn2c1nc(N1CCCCC1)c1ccccc12 | inconclusive [inhibitor, partial curve] | – |
| COCc1cc(CN2CCCC2)c(O)c2ncccc12 | – | inactive: -16% |
| O=C(NCc1cccc(CNC(=O)c2ccco2)c1)c1ccco1 | inconclusive [inhibitor, single point] | – |
| O=C(CN(c1ccc2c(c1)OCCO2)S(=O)(=O)c1ccccc1)Nc1ccc2c(c1)OCO2 | inconclusive [inhibitor, partial curve] | – |
| C=CCn1c(SCC(=O)Nc2ccc3c(c2)CCC3)nnc1-c1cccs1 | inconclusive [inhibitor, partial curve] | – |
| c1cnc(NC2CCCCCC2)nc1 | – | inactive: -7.28% |
| Cn1c(=O)c2c(nc(NCC3CCCO3)n2Cc2cccc(Br)c2)n(C)c1=O (stereo unspecified) | – | inactive: 8.61% |

| Structure (SMILES) | Potency | activity, negative = inhibition |
| --- | --- | --- |
| O=C(CNS(=O)(=O)c1cccs1)Nc1ccc2c(c1)OCCO2 | inconclusive [inhibitor, single point] | – |
| CCCCC/C=C\C/C=C\C/C=C\C/C=C\CCCC(=O)C(F)(F)F | active: 20 µM | – |
| Cc1cc(NC(=O)c2cc(-c3ccco3)on2)n(-c2ccccc2)n1 | inconclusive [inhibitor, single point] | – |
| CC(C)=CCC/C(C)=C/CO/N=C1/C[C@@H](O)[C@@H](O)[C@@H]2[C@H]3C(=O)N(c4ccc(F)cc4F)C(=O)[C@@H]3CC[C@H]12 | – | inactive: -10.9% [at 13.5 µM] |
| COc1ccc(S(=O)(=O)N2CCCCCC2)cc1N(C)S(=O)(=O)c1ccc(C)cc1 | inconclusive [inhibitor, single point] | – |
| COC(=O)COc1ccc(NC(=O)C2CCCO2)cc1 (stereo unspecified) | inconclusive [inhibitor, single point] | – |
| CCCCCOC(=O)Cc1c(O)c2ccccc2n(C)c1=O | inconclusive [inhibitor, single point] | – |
| CCOC(=O)c1c(NC(C)=O)sc2c(OCCN(CC)CC)c(Br)ccc12 | inconclusive [inhibitor, single point] | – |
| C=CCSC1=C(C#N)C(c2ccccc2Cl)CC(=O)N1 (stereo unspecified) | active: 25.1 µM | – |
| Cc1ccc(C(=O)N2CCC(C(N)=O)CC2)cc1C | inconclusive [inhibitor, single point] | – |
| Cc1onc(-c2c(Cl)cccc2Cl)c1C(=O)N[C@H]1C(=O)N2[C@H]1SC(C)(C)[C@H]2C(=O)O | – | inactive: 8.13% [at 20.9 µM] |
| CCN1C(=O)CSc2ccc(C(=O)OC)cc21 | – | inactive: 1.46% |
| CCN(Cc1cc(=O)n2ccsc2n1)Cc1nc2ccccc2c(=O)[nH]1 | inconclusive [inhibitor, single point] | – |
| CC(C)CN1C(=O)c2ccc(C(=O)Nc3nccs3)cc2C1=O | active: 0.447 µM | – |
| Cn1cccc2[nH]c(=O)nc1-2 | inconclusive [inhibitor, single point] | – |
| O=C(/C=C/Nc1ccc(Oc2ccccc2)cc1)c1ccco1 | – | inactive: 0.211% |
| O=C1NC(=O)c2cc(NC(=O)C3COc4ccccc4O3)ccc21 (stereo unspecified) | inconclusive [inhibitor, single point] | – |
| CN1CCN(c2nc(N3CCN(CCO)CC3)nc3ccccc23)CC1 | inconclusive [inhibitor, single point] | – |
| COc1cccc(NC(=O)COC(=O)Cc2ccccc2[N+](=O)[O-])c1 | inconclusive [inhibitor, single point] | – |
| CC(=O)Nc1ccccc1OCC(=O)c1ccc2c(c1)OCO2 | – | inactive: 3.3% |
| COc1cccc(-n2nc(-c3ccnn3-c3ccc(F)cc3)c(=O)n(C)c2=O)c1 | inconclusive [inhibitor, single point] | – |
| O=C(NCc1ccc(Cl)cc1)c1cccc(NC(=O)c2ccccc2)c1 | – | inactive: -5.82% |
| CC1CN(/C=C/C(=O)C(F)(F)F)CC(C)O1 (stereo unspecified) | inconclusive [inhibitor, single point] | – |
| Cc1ccc(NC(=O)Cc2ccc(Cl)c(Cl)c2)cc1S(=O)(=O)N(C)C | inconclusive [inhibitor, single point] | – |

| Structure (SMILES) | Potency | activity, negative = inhibition |
| --- | --- | --- |
| O=C1CC(SCc2nc3ccccc3[nH]2)C(=O)N1c1cccc(F)c1 (stereo unspecified) | active: 12.6 µM | – |
| COc1ccc(NC(=O)c2ccccc2SC)cc1 | inconclusive [inhibitor, partial curve, poor fit] | – |
| CC(C)(C)C1=Nn2c(nnc2-c2n[nH]c3c2CCC3)SC1 | inconclusive [inhibitor, single point] | – |
| O=[N+]([O-])c1ccc(Cc2ccncc2)cc1 | – | inactive: 0.478% |
| CCOc1ccc(NC2=NCC(=O)N2Cc2cccs2)cc1 | inconclusive [inhibitor, single point] | – |
| O=C(O)C1CCCN1S(=O)(=O)c1ccc(Br)s1 (stereo unspecified) (tested in a mixture with another compound) | – | inactive: -8.98% |
| CCc1nnc(NC(=O)CCC(=O)N2CCN(Cc3ccccc3)CC2)s1 | – | inactive: -7.29% |
| S=C(Nc1ccc(Oc2ccccc2)cc1)N(CCCN1CCOCC1)Cc1ccccn1 | inconclusive [inhibitor, single point] | – |
| CCn1c(SCc2ccccc2)nnc1-c1cccnc1 | inconclusive [inhibitor, partial curve] | – |
| COc1ccc(C2C3=C(Nc4ncnn42)c2ccccc2CCC3)cc1 (stereo unspecified) | inconclusive [inhibitor, single point] | – |
| O=C(COC(=O)CCS(=O)(=O)c1ccc(Cl)cc1)NC1CCCCC1 | inconclusive [inhibitor, single point] | – |
| CSc1ccccc1NC(=O)COc1ccccc1Cl | – | inactive: -12.4% |
| Cc1c(Cl)c([N+](=O)[O-])nn1CCCC(=O)Nc1cc(Cl)ccc1Cl | inconclusive [inhibitor, single point] | – |
| COc1ccc(C(=O)N2CCC(C(=O)c3c(C)cc(C)cc3C)CC2)cc1 | active: 22.4 µM | – |
| Cc1occc1C(=O)n1cnc2ccccc21 | – | inactive: 6.33% |
| CN(c1ccccc1)S(=O)(=O)c1ccc(NC(=O)c2ccc(-c3ccccc3)cc2)cc1 | – | inactive: 0.967% |
| O=C(Nc1nnc(C2CC2)s1)c1cc2c(s1)CCCCCC2 | inconclusive [inhibitor, single point] | – |
| O=C(NC(=S)Nc1ccc(CN2CCOCC2)cc1)c1ccc([N+](=O)[O-])cc1Cl | inconclusive [inhibitor, single point] | – |
| CC(C1CC2CCC1C2)n1c(COc2ccccc2F)nnc1SCC(N)=O (stereo unspecified) | inconclusive [inhibitor, partial curve] | – |
| O=C(CN1CCC(NC(=O)c2ccco2)CC1)Nc1cccc2ccccc12 | – | inactive: 11.5% |
| COc1ccc(CC(=O)c2c(O)cc(O)cc2O)cc1OC | – | inactive: -6.12% |
| CCOC(=O)C1CCCN(C(=O)c2ccc3c(=O)n(CCOC)c(=S)[nH]c3c2)C1 (stereo unspecified) | – | inactive: 9.66% |
| CC(=O)Nc1cccc(Nc2nc(-c3ccccc3F)nc3ccccc23)c1 | inconclusive [inhibitor, single point] | – |
